67 sequences from the supplement of paper PMC10126150 can be followed below.

In this series the test system is ATP. Kind of series: switch fluorescence ratio, 500 uM ATP over buffer (Cy3 cluster intensity, sum of 5 cycles each) (fold (ratio)); higher = stronger signal-on switching upon ATP binding; sequences stand for … in TCGTCGGCAGCGTCAGATGTGTATAAGAGACAGTTTTTTTTTTTTTTTTTTTTTTTTT…TC. The conditions noted are these: aptamer strand: ATP DNA aptamer (quencher-CACCTGGGGGAGTATTGCGGAGGAAGG + anchor), 100 nM annealed; ATP concentration: 500 uM; one replicate. Put shortly:
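Per cluster, summed Cy3 intensity from the target cycles was divided by that from the buffer cycles to give the fluorescence ratio, then averaged per switch-domain sequence. Clusters outside 100-1000 RFU were excluded. The Cy3-labelled switching-strand clusters, on a modified Illumina MiSeq flow-cell, were annealed to 100 nM quencher-labelled ATP aptamer and imaged in selection buffer, then after 15 min with 500 uM ATP at 22 °C, for five cycles with NaOH stripping and re-annealing between them.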

Values marked as one replicate rest on one cluster of the flow cell; about a third of the high ones do not repeat.
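Also: ATP exposure 15 min at 22 °C before imaging.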

As to AGTTAAGGTT, the switch fluorescence ratio was 1.

As for CTGGACGATA, the switch fluorescence ratio was 1.1. Then CGGTAAAGCT, with 1.13.

For GAAGTTATGC, the switch fluorescence ratio is 1.19.

As for GCTAATCTC, the switch fluorescence ratio was 1.1. With ATGGCACCAT, the switch fluorescence ratio came to 0.99. Then GCCCGCGAAA, with 1.12; and GAATGACGT, with 1.01; and GCAAGATATG, with 0.997.

Consider TACGTCGACG, for which the switch fluorescence ratio came to 0.997. As for TGTGGCCGCA, the switch fluorescence ratio worked out at 0.991.

As for GTGGGTCCGG, the switch fluorescence ratio was 0.996. Take ATCCCAGTTG: the switch fluorescence ratio was 1.78. On to AAAAGTCTTG, for which the switch fluorescence ratio worked out at 1.04.

As to AGAGGGAGTC, the switch fluorescence ratio is 1.05.

As for TGGGAGCGGC, the switch fluorescence ratio came to 1.01. Then AAGTGATGGA, with 0.997; and TTCCTTACG, with 2.54; and CCCGGAGGTG, with 2.39. Next, TAGTGGGCGT: 0.999; CCTTTACGCT: 1.52; CTAAGCTTTT: 0.996.

As for TGCATATGTT, the switch fluorescence ratio stood at 1.07. Turning to CAGCCTCGGT, the switch fluorescence ratio was found to be 1.06. Next, TGGATCAAAC: 0.958; AGGTTAGTAC: 1.06.

Regarding TCCGGTGATA, the switch fluorescence ratio was 0.988. Take TGCAATCTTG: the switch fluorescence ratio was 1.03. Consider AGGCCTTTGT, for which the switch fluorescence ratio amounted to 0.993. With TTATTGAGGC, the switch fluorescence ratio turned out to be 0.936. Take CGGAGGGTTG: the switch fluorescence ratio was found to be 1.02.

Consider TCAGGTTTC, for which the switch fluorescence ratio is 0.991. In the case of TGCTCCTGAG, the switch fluorescence ratio came to 0.959. Then TCAACAGTGA, with 1.07.

Regarding CGGGTTGAGG, the switch fluorescence ratio stood at 1.01. For GCTTCAGGTA, the switch fluorescence ratio amounted to 1.02.

GATCTGATAC: the switch fluorescence ratio was 1.2. Consider GGTACGATGT, for which the switch fluorescence ratio was determined as 1. Take CATGGCTACG: the switch fluorescence ratio stood at 0.987. As to TAATTTGGTA, the switch fluorescence ratio was found to be 0.979. TACAACGGCC: the switch fluorescence ratio was found to be 1.02. Then CTATTACGGG, with 0.971. As for AAACGGTCTA, the switch fluorescence ratio turned out to be 0.983. In the case of TTGCTTCGTA, the switch fluorescence ratio was 0.95. Then TGGTTTACT, with 1.06; and GGGTGAGAAT, with 1.06. Take CTAGTCTTAT: the switch fluorescence ratio was found to be 0.987. As for TCAGTATTAA, the switch fluorescence ratio amounted to 0.985. In the case of CTGACTCT, the switch fluorescence ratio amounted to 1.02. Then ATATAGTTGG, with 0.985; and ATACAACAAA, with 1.02; and GCACCATGGT, with 1.03.

With ATAGCGGTAT, the switch fluorescence ratio is 1.05. On to CAGGCCACCG, for which the switch fluorescence ratio came to 0.986. As to CTAACCTAAT, the switch fluorescence ratio worked out at 1.07.

As to AGGATTAGAT, the switch fluorescence ratio amounted to 1.02. Regarding ACTTTCATTT, the switch fluorescence ratio was found to be 1.04. Next, TGGACTAAAA: 0.972; ATTGGCACGT: 0.991. On to CGAAAAACTG, for which the switch fluorescence ratio is 1.04. For the sequence CTAGTGTCTA, the switch fluorescence ratio came to 1.04. Then CCGTTTGCGA, with 2.4. Then TCAGTGTACG, with 1.02. For the sequence ATCGCTACCG, the switch fluorescence ratio came out at 0.983.

Consider CGGTTAACCG, for which the switch fluorescence ratio was determined as 0.972. As to CTGAAAGTTC, the switch fluorescence ratio worked out at 0.989. Regarding CCAACAAACC, the switch fluorescence ratio amounted to 1.16.
